The list shows a part of the results.
B1: chr2:90693216:90693217:+_ENSMUSG00000027282_ENSMUST00000136872|mus_mus|FALSE|FALSE (ssRNA)
RNA: GGGAGUUCUACAGUCCGACGAUCCUCUUUGAUAACUCGGUCAAAGGAGGAUGAAUAUUCUUUUUGUACAGUUACAGAUCCUAACUCCUCAGGUUUCUCAGACUCCUGGUAAUACUGUAAGACUUUCCCAUGGACCACAGUUCCCAACAGAGGAUUGAGCAUCA
B2: 33185460_33185580_2885_3pUTR_ENSG00000170275_ENST00000320954|human|control|control (ssRNA)
RNA: GGGAGUUCUACAGUCCGACGAUCUUCCUAACAGGUCUUCCCUCUUCCUUCUGCCCUUGUCCACUAAAGUUUUUCACAAUAUGGCAGCUAGAAUGACCCUUGCAAAAUAUAAAUCAAUCAAGGCACUCCUCUGUUCAAACCCUCCAACAGAGGAUUGAGCAUCA
B3: chr3:170585912:170585913:-_ENSG00000163584_ENST00000463836|hu_hu|FALSE|FALSE (ssRNA)
RNA: GGGAGUUCUACAGUCCGACGAUCGUGAACAACAUUCCCGAGAUUUCCAGUUUUGCCAUUGACUUUAACCUUCUCCCGUAGAAAUUGCUCAAAAUUUCCAGAAUCAAAAAUUCCAUCUUCUACUGGAUGAGUAAGGUCCAAAUUCAACAGAGGAUUGAGCAUCA
B4: chr3:176767854:176767855:-_ENSG00000177565_ENST00000430069|hu_hu|hu_hu_hu_mus_False|18_58 (ssRNA)
RNA: GGGAGUUCUACAGUCCGACGAUCGACAUCCUUGUUACUGGGCACGUCCUGCCCUCCUUCCCGUAUGCAGUGUCUAAGUACUAACUGCGUAGGGCCACUCGUGCUGUUCUCACUGAGAUUCCAUAUUCUUGCCGUGGAGUCUCCCAACAGAGGAUUGAGCAUCA
B5: chr12:111160049:111160050:-_ENSG00000186298_ENST00000335007|hu_hu|FALSE|FALSE (ssRNA)
RNA: GGGAGUUCUACAGUCCGACGAUCAAACUCUCCGCAAUAAUUGGGCGCAGAAAACAGAGUGACCAACUGCCUCUUUGCAAAAAAUUCAUAUCCAUCUUCAACCACCUGAUGGGCUCUACAUAUAAGAUCCAAAUCAUGCUUAUGCAACAGAGGAUUGAGCAUCA
B6: 106621378_106621966_916_CDS_ENSMUSG00000040661_ENSMUST00000046502|mouse|control|control (ssRNA)
RNA: GGGAGUUCUACAGUCCGACGAUCCUUCUCCUCUUCCUCGUCCUCCUCGCUGACAGACUCACUGCUGUCCACGAUGUGCAGCGUAUCCUCCUCUCCAGAACUCAGCUCAAUUACCUCGUCUCGACUACUCUUUUCAUCCUCACUCAACAGAGGAUUGAGCAUCA
B7: 77941773_77949851_993_CDS_ENSG00000138758_ENST00000541121|human|control|control (ssRNA)
RNA: GGGAGUUCUACAGUCCGACGAUCCAUUUCUUCUUCUUUCUUCUGCAGUUCUCCCAGGAAUUCAUUCCUUUUUGCUUCAUAUGUCUCCUGAAGACUGAAGGGUUUGCUGUCAGGGUCAGUGUCCUUGAACCCCAUCUCUUCAAGCAACAGAGGAUUGAGCAUCA
B8: chr11:46765198:46765199:-_ENSG00000175216_ENST00000415402|hu_mus|FALSE|FALSE (ssRNA)
RNA: GGGAGUUCUACAGUCCGACGAUCUACAGAAUACAGUGUCCCUUCAGGGCUACAGAAGAAGAGCUCACAACUCAAAAGGAACUAUUAAAAGAGUUUCUAAUGGCUGAAAGCUAGGAAAAAUUAGGACAAUUUUACAAAUGAGCCCAACAGAGGAUUGAGCAUCA
B9: chr12:46321692:46321693:-_ENSG00000139218_ENST00000369367|hu_hu|FALSE|FALSE (ssRNA)
RNA: GGGAGUUCUACAGUCCGACGAUCGCUCUCUAUAAGCUCCUCUGUUUUUAGUGUAAAAUCUUUAUGUUCAGUAAUUUCUACUAGGGAACUCUCUGUUAUUUUUUCUUCAUUAACCACUGACUCUACAUUCUCAGAUAAGUCACUCAACAGAGGAUUGAGCAUCA
B10: chr11:86887402:86887403:-_ENSMUSG00000061666_ENSMUST00000020804|mus_mus|FALSE|FALSE (ssRNA)
RNA: GGGAGUUCUACAGUCCGACGAUCAGAGAUGUGCCUACUGAGGAAUCGCUGUUUCUUUCUCUGGUGCAGCAACGCUGGGUAUUUAAGCAACAAGAACGAGGUGACCAAAUAUCCCCCCAGAGUAGAGAGAAGGCAAAAAGCCGCCAACAGAGGAUUGAGCAUCA
B11: chr12:16048344:16048345:+_ENSG00000023734_ENST00000419869|hu_hu|hu_hu_hu_mus_True|1_58 (ssRNA)
RNA: GGGAGUUCUACAGUCCGACGAUCAGAUCGUCCAUAAGUAAUAACCAAAAUCUCUCCUUCAGGAAUAUACUCCAUGCUACUAACAGACAUAUUAAAAUUCAGAGAUUUCACUUCUGUCAUUGUGGCAUGAUCCCAGAGUCGAACCAACAGAGGAUUGAGCAUCA
B12: 11318127_11319362_1394_CDS_ENSMUSG00000022241_ENSMUST00000022849|mouse|control|control (ssRNA)
RNA: GGGAGUUCUACAGUCCGACGAUCCGAGAGCUCAUUCCUAUGCAGCACACCAAAGUCAGCUAGCCGCAGGGGCAGCUCUCGCCAGGACCGUGGCCGGUGAUCGAACAUCAGGCAGUGUCCCGGGCAGUUCAUGGGCUUAAGUGCCAACAGAGGAUUGAGCAUCA
B13: 41309195_41313217_1113_3pUTR_ENSMUSG00000025016_ENSMUST00000025989|mouse|control|control (ssRNA)
RNA: GGGAGUUCUACAGUCCGACGAUCUCCAAAGUACCCGUUCACUGGCGAUGUAGCAGCAUAGACAAAUAUGGCUGUGCUGAGCAUUGACCCCCUCUCUGUAUAUAAGUCCUCUAUCAUGGCAACAAUAAUAACAAUGAGAGACACCAACAGAGGAUUGAGCAUCA
B14: chr18:21054979:21054980:+_ENSG00000101782_ENST00000339486|hu_mus|FALSE|FALSE (ssRNA)
RNA: GGGAGUUCUACAGUCCGACGAUCCUUUACUUCUUUUAAUUUAGGGGCUGGAACUUGAUCAUGGCCAAUGAAAGACAUAACUAAAAUGUGCUUCUUAAGCAGUACAACUGUUGGACAAGGAAUUCCAGCCUUCUGCAUUCUUGUCAACAGAGGAUUGAGCAUCA

These binders were tested against T1, UNK ZnF1-3 (human, UniProt Q9C0B0 31-174) (assay: nsRBNS (natural sequence RNA bind-n-seq); RBNS binding buffer (assumed for nsRBNS): 25 mM Tris pH 7.5, 150 mM KCl, 3 mM MgCl2, 0.01% Triton X-100, 500 ug/ml BSA, 20 U/ml SUPERase-In, 4 C; UNK is unkempt and MSI1 is Musashi-1; names of the RNAs are library labels; protein concentration not given here; high values mean tight binding).
T1 sequence: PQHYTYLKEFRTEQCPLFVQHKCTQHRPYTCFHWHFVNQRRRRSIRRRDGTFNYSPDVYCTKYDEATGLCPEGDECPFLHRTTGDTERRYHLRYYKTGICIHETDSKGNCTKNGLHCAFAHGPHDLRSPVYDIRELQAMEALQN

**Q.** With B1 as the binder, how does the binding signal read?
**A.** Its binding signal is 0.992 enrichment R.

**Q.** Which binding signal does the source give for B2 here?
**A.** Its binding signal is 1.54 enrichment R.

**Q.** For B3, which binding signal is on record?
**A.** The binding signal was 0.799 enrichment R.

**Q.** How did the binding signal turn out when B4 was run?
**A.** Its binding signal is 0.473 enrichment R.

**Q.** Which binding signal does the source give for B5 here?
**A.** The binding signal was 1.67 enrichment R.

**Q.** For B6, which binding signal is on record?
**A.** The binding signal was 0.604 enrichment R.

**Q.** For B7, which binding signal is on record?
**A.** Its binding signal is 0.403 enrichment R.

**Q.** How did the binding signal turn out when B8 was run?
**A.** The binding signal was 1.81 enrichment R.

**Q.** For B9, which binding signal is on record?
**A.** Its binding signal is 0.553 enrichment R.

**Q.** Which binding signal does the source give for B10 here?
**A.** The binding signal was 1.78 enrichment R.

**Q.** How did the binding signal turn out when B11 was run?
**A.** Its binding signal is 0.733 enrichment R.

**Q.** For B12, which binding signal is on record?
**A.** Its binding signal is 1.1 enrichment R.

**Q.** With B13 as the binder, how does the binding signal read?
**A.** The binding signal was 1.25 enrichment R.

**Q.** B14 was tested. Which binding signal did it give?
**A.** Its binding signal is 0.871 enrichment R.
